Experimental data: PMC4336329 (PLoS ONE, 2015)
The whole screen tested about 310,000 compounds, of which about 2,200 (0.71%) showed an effect of 50% or more. Effects have a minus sign here. This is one part of the list.

target: human ether-à-go-go-related gene (hERG) potassium channel (human, UniProt Q12809); test: primary screen, population patch clamp on CHO cells stably expressing hERG
Sequence (Q12809 whole entry, looked up): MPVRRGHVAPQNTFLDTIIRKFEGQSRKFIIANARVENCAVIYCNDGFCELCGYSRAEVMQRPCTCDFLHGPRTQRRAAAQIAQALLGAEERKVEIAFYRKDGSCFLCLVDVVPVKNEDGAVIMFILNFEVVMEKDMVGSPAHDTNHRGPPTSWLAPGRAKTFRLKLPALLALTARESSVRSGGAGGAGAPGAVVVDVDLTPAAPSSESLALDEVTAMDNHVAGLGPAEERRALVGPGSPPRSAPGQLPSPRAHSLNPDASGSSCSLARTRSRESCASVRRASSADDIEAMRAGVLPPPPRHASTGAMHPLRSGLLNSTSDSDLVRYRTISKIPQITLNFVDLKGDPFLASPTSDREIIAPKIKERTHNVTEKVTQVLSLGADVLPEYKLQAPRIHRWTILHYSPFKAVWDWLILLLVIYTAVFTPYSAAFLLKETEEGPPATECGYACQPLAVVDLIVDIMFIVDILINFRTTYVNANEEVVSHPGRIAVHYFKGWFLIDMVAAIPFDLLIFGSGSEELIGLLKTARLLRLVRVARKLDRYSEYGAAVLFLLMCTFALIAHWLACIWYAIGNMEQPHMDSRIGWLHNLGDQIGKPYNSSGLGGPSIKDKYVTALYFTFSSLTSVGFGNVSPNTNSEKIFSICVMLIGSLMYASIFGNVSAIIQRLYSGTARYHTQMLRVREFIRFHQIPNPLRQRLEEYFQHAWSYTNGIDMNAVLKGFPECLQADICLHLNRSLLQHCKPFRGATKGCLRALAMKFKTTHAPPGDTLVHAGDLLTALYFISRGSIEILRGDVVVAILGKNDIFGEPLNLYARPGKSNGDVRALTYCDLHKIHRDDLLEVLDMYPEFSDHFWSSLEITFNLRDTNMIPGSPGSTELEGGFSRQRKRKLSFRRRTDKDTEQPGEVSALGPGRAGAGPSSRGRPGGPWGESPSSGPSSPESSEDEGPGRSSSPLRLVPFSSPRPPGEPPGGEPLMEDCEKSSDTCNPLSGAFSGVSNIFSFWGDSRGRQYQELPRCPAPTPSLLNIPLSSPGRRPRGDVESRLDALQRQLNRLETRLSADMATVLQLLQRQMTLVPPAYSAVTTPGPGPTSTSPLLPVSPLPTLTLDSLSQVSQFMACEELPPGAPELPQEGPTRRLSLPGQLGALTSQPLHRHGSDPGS

Row | SMILES | hERG current change (%, negative = inhibition) at 1uM [%]
1 | O=C(CS(=O)(=O)Cc1ccccc1)NCc1ccc2c(c1)OCO2 | -5.16
2 | CCC(=O)N1CCN=C1SCc1ccccc1Cl | 14.3
3 | COc1ccccc1-n1cnnc1SCC(=O)NC1CCS(=O)(=O)C1 (stereo not drawn) | 16.6
4 | Cc1cc(OCc2nnc(SCC(=O)O)n2-c2ccccc2)ccc1Cl | 11.7
5 | O=C(Cc1ccc(F)cc1)NC1CCCC1 | 0.718
6 | O=C(Nc1ccccc1F)n1ncc2cc(Cl)ccc21 | 13.9
7 | COc1ccc(Cn2c(C)nnc2-c2cnn(C)c2N)cc1 | 9.29
8 | CC1CCN(S(=O)(=O)c2ccc(Cl)cc2)CC1 | 5.86
9 | CCOC(=O)Cc1cc(=O)c2c(=O)n(-c3ccccc3)[nH]c2[nH]1 | 6.6
10 | C=CCn1c(N)cc(=O)nc1SCC(=O)N1CCN(c2ccc(F)cc2)CC1 | 13.1
11 | Cc1ccc(/C=N/NC(=O)c2nnn(-c3nonc3N)c2CSc2ccccc2)cc1 | 11.4
12 | Cc1ccc(NC(=O)C(C)OC(=O)c2ccc(NC(=O)CC#N)cc2)cc1S(=O)(=O)N1CCOCC1 (stereo not drawn) | 4.57
13 | Cc1ccc(CSc2ncnc3c2cnn3-c2ccccc2)cc1 | 12.1
14 | CN=C(C)/C(C(=O)OC)=C(/O)c1ccc(Cl)cc1Cl | 11.3
15 | Cc1cc(Nc2cc(F)ccc2C)n2ncnc2n1 | 8.73
16 | COC(=O)C1=C(N)Oc2cc(C)n(Cc3cccnc3)c(=O)c2C1c1cccc(OC)c1OC (stereo not drawn) | 8.96
17 | CCOC(=O)C1CCN(S(=O)(=O)c2cccc(-c3cn4cc(C)ccc4n3)c2)CC1 | 2.14
18 | Cc1cccc(NC(=O)CSc2cc(C)c(C#N)c3nc4ccccc4n23)c1 | 13.4
19 | O=C1N=c2ccc(Br)cc2=C1c1sc(=S)n(NS(=O)(=O)c2ccccc2)c1O | 6.08
20 | COC(=O)c1ccc(CSc2nnc3c(n2)[nH]c2ccccc23)cc1 | -2.75
21 | COc1ccccc1NC(=S)N(CCN(C)C)C(C)c1ccncc1 (stereo not drawn) | -0.164
22 | CSCCC(NC(=O)C12CC3CC(CC(C3)C1)C2)C(=O)OCC(=O)c1ccccc1 (stereo not drawn) | 11.9
23 | O=C(NC1CCCC1)C(c1ccccn1)N(C(=O)c1csnn1)c1ccc(F)cc1 (stereo not drawn) | 12.9

Row | SMILES | hERG current change (%, negative = inhibition) at 1uM [%]
24 | CC(=O)c1cccc(N(CC(=O)Nc2cccnc2)S(C)(=O)=O)c1 | 0.334
25 | O=C(NCCC1=CCCCC1)C1CCC(=O)N(Cc2cccc(C(F)(F)F)c2)C1 (stereo not drawn) | 3.98
26 | COCCCn1c(=O)c2ccccc2n(CC(=O)NCCC2=CCCCC2)c1=O | 2.07
27 | Cc1ccc(OCCC(=O)OCC(=O)Nc2ccc(Cl)cn2)cc1 | -8.19
28 | Cn1nc(C(=O)Nc2ccccc2Cl)cc1C(=O)Nc1ccccc1Cl | 11.7
29 | CC(C)Oc1ccc2ccccc2c1C=O | 7.42
30 | O=C(O)C1(c2ccccc2)CCN(S(=O)(=O)c2ccc(Cl)s2)CC1 | 9.1
31 | COCCn1c(SCc2nc3cc(OC)c(OC)cc3c(=O)[nH]2)nnc1-c1ccncc1 | 10.6
32 | COC(=O)C1=C(c2cccc(OC)c2OC)C[C@@H]2CC[C@H]1N2C(=O)N1CCC(C)CC1 | 3.51
33 | CCOc1ccc(NC(=O)CCCOc2cc(=O)n(C)c3ccccc23)cc1 | 5.22
34 | COc1ccc(N=Cc2nc(-c3ccccc3)oc2OC(C)=O)cc1 | 13.7
35 | CC(C)C[C@H](NC(=O)N1CC(=O)Nc2ccccc21)C(=O)N[C@@H](C(=O)O)c1ccccc1 | 9.71
36 | CCOc1ccccc1NC(=O)CCC(=O)Nc1ccccc1OCC | 9.15
37 | CN1CCN(CC(=O)N2CCn3c4c(c5cc(C6CCCCC6)ccc53)CCCC42)CC1 (stereo not drawn) | 2.27
38 | O=C(c1ccc(OC2CCN(Cc3ccc(F)cc3)CC2)cc1)N1CCCC1 | 7.68
39 | O=C(O)c1nccnc1C(=O)N1CCN(c2ccccc2)CC1 | 9.08
40 | CCN1CCN(Cc2cc(Br)cc(OC)c2O)CC1 | 2.15
41 | COc1cccc(CNC(=O)c2cc3c(C)nc4ccccc4c3o2)c1 | 8
42 | c1ccc2c(C[C@@H]3CNCCN3CC3CCCCC3)cccc2c1 | 15.6
43 | CCOC(=O)N1CCN(Cc2cn[nH]c2-c2cc3ccccc3o2)CC1 | -0.862
44 | CC1CCCC(NC(=O)CSc2ncccn2)C1C (stereo not drawn) | 2.48
45 | Cc1ccccc1-c1nnnn1C1CCS(=O)(=O)C1 (stereo not drawn) | 2.03
